Common to all, as to test: microbe, parasite or virus in culture
For one test, the system named is HIV-1 K103N RT mutant. Particulars: Human immunodeficiency virus 1, HeLa.
A further test relates to HIV-1 V106A RT mutant. As to conditions: Human immunodeficiency virus 1, HeLa.
For another test, the system named is HIV-1 Y181C RT mutant. As to conditions: Human immunodeficiency virus 1, HeLa.
A further test has as its system HIV-1 Y188L RT mutant. Particulars: Human immunodeficiency virus 1, HeLa, read-out: IC50 against Y188L.
Setting [1] is: read-out: K103N activity level, HeLa-CD4-LTR-β-gal cells, K103N virus.
Where [2] appears, read: read-out: V106A activity level, HeLa-CD4-LTR-β-gal cells, V106A virus.
Where [3] appears, read: read-out: Y181C activity level, HeLa-CD4-LTR-β-gal cells, Y181C virus.
Where [4] appears, read: read-out: IC50 against K103N, HeLa cell assay.
Setting [5] is: read-out: IC50 against V106A, HeLa cell assay.
Where [6] appears, read: read-out: IC50 against Y181C, HeLa cell assay.

pIC50: −log10 of the molar value. Counter-ions that a name gives are not always drawn. Like-named read-outs stand apart in the source and are kept apart here.

As for `CC(=O)Nc1ccc2[nH]c(C(=O)NCc3ccc(Cl)c(Oc4cc(Cl)cc(C#N)c4)c3F)nc2c1` [Example 125, 5-(acetylamino)-N-({4-chloro-3-[(3-chloro-5-cyanophenyl)oxy]-2-fluorophenyl}methyl)-1H-benzimidazole-2-carboxamide], the values for the pIC50 with HIV-1 K103N RT mutant (setting [1]), in the test on HIV-1 V106A RT mutant (setting [2]) and in the test on HIV-1 Y181C RT mutant (setting [3]) were over 8.00, 6.00 to 8.00 and over 8.00, respectively.

Consider `CN(C)c1ccc2[nH]c(C(=O)NCc3ccc(Cl)c(Oc4cc(Cl)cc(C#N)c4)c3F)cc2c1` [Example 126, N-({4-chloro-3-[(3-chloro-5-cyanophenyl)oxy]-2-fluorophenyl}methyl)-5-(dimethylamino)-1H-indole-2-carboxamide], for which the pIC50 in the test on HIV-1 K103N RT mutant (setting [1]), with HIV-1 V106A RT mutant (setting [2]) and with HIV-1 Y181C RT mutant (setting [3]) was 6.00 to 8.00 each time.

In the case of `N#Cc1cc(Cl)cc(Oc2c(Cl)ccc(CNC(=O)c3cc4cc(N(CC5CC5)CC5CC5)ccc4[nH]3)c2F)c1` [Example 127, 5-[bis(cyclopropylmethyl)amino]-N-({4-chloro-3-[(3-chloro-5-cyanophenyl)oxy]-2-fluorophenyl}methyl)-1H-indole-2-carboxamide], the pIC50 in the test on HIV-1 K103N RT mutant (setting [1]), in the test with HIV-1 V106A RT mutant (setting [2]) and in the test on HIV-1 Y181C RT mutant (setting [3]) was 6.00 to 8.00 throughout.

Turning to `N#Cc1cc(Cl)cc(Oc2c(Cl)ccc(CNC(=O)c3[nH]ccc3Cl)c2F)c1` [Example 128, 3-chloro-N-({4-chloro-3-[(3-chloro-5-cyanophenyl)oxy]-2-fluorophenyl}methyl)-1H-pyrrole-2-carboxamide], the pIC50 in the test with HIV-1 K103N RT mutant (setting [4]), with HIV-1 K103N RT mutant (setting [1]), in the test on HIV-1 Y188L RT mutant, in the test on HIV-1 V106A RT mutant (setting [5]), with HIV-1 V106A RT mutant (setting [2]) and in the test on HIV-1 Y181C RT mutant (setting [6]) was over 8.00 each time. Further, in the test with HIV-1 Y181C RT mutant (setting [3]), the pIC50 was over 8.00.

For the molecule `CN(Cc1ccc(Cl)c(Oc2cc(Cl)cc(C#N)c2)c1F)C(=O)c1ccc[nH]1` [Example 129, N-({4-chloro-3-[(3-chloro-5-cyanophenyl)oxy]-2-fluorophenyl}methyl)-N-methyl-1H-pyrrole-2-carboxamide], the pIC50 in the test on HIV-1 K103N RT mutant (setting [1]), with HIV-1 V106A RT mutant (setting [2]) and with HIV-1 Y181C RT mutant (setting [3]) was over 8.00 throughout.

As to `CN(Cc1ccc(Cl)c(Oc2cc(Cl)cc(C#N)c2)c1F)C(=O)c1ncc[nH]1` [Example 130, N-({4-chloro-3-[(3-chloro-5-cyanophenyl)oxy]-2-fluorophenyl}methyl)-N-methyl-1H-imidazole-2-carboxamide], the pIC50 is over 8.00 with HIV-1 K103N RT mutant (setting [1]), 6.00 to 8.00 with HIV-1 V106A RT mutant (setting [2]) and over 8.00 with HIV-1 Y181C RT mutant (setting [3]).

As to `CN(Cc1ccc(Cl)c(Oc2cc(Cl)cc(C#N)c2)c1F)C(=O)c1[nH]cnc1Cl` [Example 132, 4-chloro-N-({4-chloro-3-[(3-chloro-5-cyanophenyl)oxy]-2-fluorophenyl}methyl)-N-methyl-1′-imidazole-5-carboxamide trifluoroacetate], the values for the pIC50 in the test with HIV-1 K103N RT mutant (setting [1]), with HIV-1 V106A RT mutant (setting [2]) and with HIV-1 Y181C RT mutant (setting [3]) were over 8.00, 6.00 to 8.00 and over 8.00, respectively.

Consider `N#Cc1cc(Cl)cc(Oc2c(Cl)ccc(CNC(=O)c3[nH]cnc3Br)c2F)c1` [Example 133, 4-bromo-N-({4-chloro-3-[(3-chloro-5-cyanophenyl)oxy]-2-fluorophenyl}methyl)-1H-imidazole-5-carboxamide trifluoroacetate], for which the pIC50 in the test on HIV-1 K103N RT mutant (setting [4]), with HIV-1 K103N RT mutant (setting [1]), in the test on HIV-1 Y188L RT mutant, in the test with HIV-1 V106A RT mutant (setting [5]), in the test with HIV-1 V106A RT mutant (setting [2]) and in the test with HIV-1 Y181C RT mutant (setting [6]) was over 8.00 each time. Also, in the test on HIV-1 Y181C RT mutant (setting [3]), the pIC50 is over 8.00.

As for `Cc1nc(Br)c(C(=O)NCc2ccc(Cl)c(Oc3cc(Cl)cc(C#N)c3)c2F)[nH]1` [Example 134, 4-bromo-N-({4-chloro-3-[(3-chloro-5-cyanophenyl)oxy]-2-fluorophenyl}methyl)-2-methyl-1H-imidazole-5-carboxamide], the pIC50 in the test with HIV-1 K103N RT mutant (setting [1]), in the test on HIV-1 V106A RT mutant (setting [2]) and in the test with HIV-1 Y181C RT mutant (setting [3]) was over 8.00 in each case.

With `CC(C)c1nc(Cl)c(C(=O)NCc2ccc(Cl)c(Oc3cc(Cl)cc(C#N)c3)c2F)[nH]1` [Example 135, 4-chloro-N-({4-chloro-3-[(3-chloro-5-cyanophenyl)oxy]-2-fluorophenyl}methyl)-2-(1-methylethyl)-1H-imidazole-5-carboxamide trifluoroacetate], the pIC50 with HIV-1 K103N RT mutant (setting [1]), in the test with HIV-1 V106A RT mutant (setting [2]) and with HIV-1 Y181C RT mutant (setting [3]) was over 8.00 throughout.

In the case of `N#Cc1cc(Cl)cc(Oc2c(Cl)ccc(CNC(=O)c3[nH]c(C4CC4)nc3Cl)c2F)c1` [Example 136, 4-chloro-N-({4-chloro-3-[(3-chloro-5-cyanophenyl)oxy]-2-fluorophenyl}methyl)-2-cyclopropyl-1H-imidazole-5-carboxamide trifluoroacetate], the pIC50 with HIV-1 K103N RT mutant (setting [1]), in the test with HIV-1 V106A RT mutant (setting [2]) and with HIV-1 Y181C RT mutant (setting [3]) was over 8.00 each time.

As for `Cc1nc(Cl)c(C(=O)NCc2ccc(Cl)c(Oc3cc(Cl)cc(C#N)c3)c2F)[nH]1` [Example 137, 4-chloro-N-({4-chloro-3-[(3-chloro-5-cyanophenyl)oxy]-2-fluorophenyl}methyl)-2-methyl-1H-imidazole-5-carboxamide], the pIC50 in the test with HIV-1 K103N RT mutant (setting [1]), in the test on HIV-1 V106A RT mutant (setting [2]) and in the test on HIV-1 Y181C RT mutant (setting [3]) was over 8.00 each time.

As for `CCCc1nc(Cl)c(C(=O)NCc2ccc(Cl)c(Oc3cc(Cl)cc(C#N)c3)c2F)[nH]1` [Example 139, 4-chloro-N-({4-chloro-3-[(3-chloro-5-cyanophenyl)oxy]-2-fluorophenyl}methyl)-2-propyl-1H-imidazole-5-carboxamide], the pIC50 with HIV-1 K103N RT mutant (setting [1]), in the test with HIV-1 V106A RT mutant (setting [2]) and with HIV-1 Y181C RT mutant (setting [3]) was over 8.00 in each case.

As for `CCCCc1nc(Cl)c(C(=O)NCc2ccc(Cl)c(Oc3cc(Cl)cc(C#N)c3)c2F)[nH]1` [Example 140, 2-butyl-4-chloro-N-({4-chloro-3-[(3-chloro-5-cyanophenyl)oxy]-2-fluorophenyl}methyl)-1H-imidazole-5-carboxamide trifluoroacetate], the pIC50 in the test with HIV-1 K103N RT mutant (setting [1]) was over 8.00; with HIV-1 V106A RT mutant (setting [2]) it was 6.00 to 8.00; in the test with HIV-1 Y181C RT mutant (setting [3]), over 8.00.

For the molecule `N#Cc1cc(Cl)cc(Oc2c(Cl)ccc(CNC(=O)c3[nH]c4cc(OCCO)ccc4c3Br)c2F)c1` [Example 141, 3-Bromo-N-({4-chloro-3-[(3-chloro-5-cyanophenyl)oxy]-2-fluorophenyl}methyl)-6-[(2-hydroxyethyl)oxy]-1H-indole-2-carboxamide], the pIC50 in the test with HIV-1 K103N RT mutant (setting [1]), in the test on HIV-1 V106A RT mutant (setting [2]) and with HIV-1 Y181C RT mutant (setting [3]) was over 8.00 throughout.

With `N#Cc1cc(Cl)cc(Oc2c(Cl)ccc(CNC(=O)c3cc4ccc(OCCO)cc4[nH]3)c2F)c1` [Example 142, N-({4-chloro-3-[(3-chloro-5-cyanophenyl)oxy]-2-fluorophenyl}methyl)-6-[(2-hydroxyethyl)oxy]-1H-indole-2-carboxamide], the pIC50 in the test with HIV-1 K103N RT mutant (setting [1]), in the test on HIV-1 V106A RT mutant (setting [2]) and in the test with HIV-1 Y181C RT mutant (setting [3]) was over 8.00 each time.

For the molecule `C=Cc1cc(C#N)cc(Oc2c(Cl)ccc(CNC(=O)c3[nH]cnc3Cl)c2F)c1` [Example 143, 4-chloro-N-({4-chloro-3-[(3-cyano-5-ethenylphenyl)oxy]-2-fluorophenyl}methyl)-1H-imidazole-5-carboxamide], the pIC50 in the test on HIV-1 K103N RT mutant (setting [4]), with HIV-1 Y188L RT mutant, in the test with HIV-1 V106A RT mutant (setting [5]) and in the test on HIV-1 Y181C RT mutant (setting [6]) was over 8.00 throughout.

`N#Cc1cc(Cl)cc(Oc2c(Cl)ccc(CNC(=O)c3[nH]cnc3Cl)c2F)c1Cl` [Example 144, 4-chloro-N-({4-chloro-3-[(2,5-dichloro-3-cyanophenyl)oxy]-2-fluorophenyl}methyl)-1H-imidazole-5-carboxamide]: the pIC50 in the test with HIV-1 K103N RT mutant (setting [4]), in the test with HIV-1 Y188L RT mutant, with HIV-1 V106A RT mutant (setting [5]) and in the test with HIV-1 Y181C RT mutant (setting [6]) was over 8.00 throughout.

For `Cc1cc(C#N)cc(Oc2c(Cl)ccc(CNC(=O)c3[nH]cnc3Cl)c2F)c1` [Example 145, 4-chloro-N-({4-chloro-3-[(3-cyano-5-methylphenyl)oxy]-2-fluorophenyl}methyl)-1H-imidazole-5-carboxamide], the pIC50 in the test with HIV-1 K103N RT mutant (setting [4]), in the test with HIV-1 Y188L RT mutant, in the test with HIV-1 V106A RT mutant (setting [5]) and with HIV-1 Y181C RT mutant (setting [6]) was over 8.00 in each case.

For `Cc1cc(C#N)cc(Oc2c(Cl)ccc(CNC(=O)c3[nH]c(C)nc3Br)c2F)c1` [Example 146, 4-bromo-N-({4-chloro-3-[(3-cyano-5-methylphenyl)oxy]-2-fluorophenyl}methyl)-2-methyl-1H-imidazole-5-carboxamide], the pIC50 in the test with HIV-1 K103N RT mutant (setting [4]), in the test on HIV-1 Y188L RT mutant, in the test with HIV-1 V106A RT mutant (setting [5]) and with HIV-1 Y181C RT mutant (setting [6]) was over 8.00 each time.

`CCc1cc(C#N)cc(Oc2c(Cl)ccc(CNC(=O)c3[nH]cnc3Cl)c2F)c1` [Example 148, 4-chloro-N-({4-chloro-3-[(3-cyano-5-ethylphenyl)oxy]-2-fluorophenyl}methyl)-1H-imidazole-5-carboxamide]: the pIC50 in the test on HIV-1 K103N RT mutant (setting [4]), in the test with HIV-1 Y188L RT mutant, with HIV-1 V106A RT mutant (setting [5]) and in the test with HIV-1 Y181C RT mutant (setting [6]) was over 8.00 throughout.

Turning to `CCc1cc(C#N)cc(Oc2c(Cl)ccc(CNC(=O)c3[nH]c(C)nc3Br)c2F)c1` [Example 149, 4-bromo-N-({4-chloro-3-[(3-cyano-5-ethylphenyl)oxy]-2-fluorophenyl}methyl)-2-methyl-1H-imidazole-5-carboxamide], the pIC50 with HIV-1 K103N RT mutant (setting [4]), in the test on HIV-1 Y188L RT mutant, in the test with HIV-1 V106A RT mutant (setting [5]) and with HIV-1 Y181C RT mutant (setting [6]) was over 8.00 throughout.

These data come from patent publication US8304419B2, “Chemical compounds” (priority 2007, dated 2012).
